From patent publication US20240182582A1 (Janssen / Centocor, published 2024)

Molecular target: T1, BCMA (UniProt Q02223 1-184, limits assumed)
T1 sequence (looked up): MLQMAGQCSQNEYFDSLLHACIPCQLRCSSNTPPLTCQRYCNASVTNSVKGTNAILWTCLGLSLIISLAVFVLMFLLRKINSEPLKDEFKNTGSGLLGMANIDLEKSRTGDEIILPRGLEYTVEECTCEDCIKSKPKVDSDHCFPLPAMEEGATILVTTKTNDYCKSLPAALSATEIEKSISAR
Assay: cell-based or functional assay

B1: NG2BB21 (bispecific antibody, human IgG1, kappa)
heavy: EVQLVQSGAEVKKPGESLKISCKGSGYSFTSYWIGWVRQMPGKGLEWMGIIYPGDSYTRYSPSFQGQVTISADKSISTAYLQWSSLKASDTAMYYCARGGVSASGNYRALDYWGQGTLVTVSSASTKGPSVFPLAPSSKSTSGGTAALGCLVKDYFPEPVTVSWNSGALTSGVHTFPAVLQSSGLYSLSSVVTVPSSSLGTQTYICNVNHKPSNTKVDKKV[human IgG1 Fc skipped]GSEGKSSGSGSESKSTGGSEIVLTQSPGTLSLSPGERATLSCRASQSISSSFLTWYQQKPGQAPRLLIYGASSRATGIPDRFSGGGSGTDFTLTISRLEPEDFAVYYCQHYGSSPMYTFGQGTKLEIKGGSEGKSSGSGSESKSTGGS[about 100 residues skipped]DEGYSSGHYYGMDVWGQGTTVTVSS
light: [about 200 residues skipped]
IC50 for BsAb cytotoxicity, H929/GFP target cells with PBMC effectors: 1.24 nM
